Numbering of substitutions follows the chain as printed. No constants are given. Whether binding was seen depends on the method and setting. In cells and extracts the contact can be indirect. Some results given as binding are weak or reduced against the parent protein; the word gives no strength. Tags and fused reporters may be left off the sequences shown.
T1: C-terminal FLAG-tagged human threonyl-tRNA synthetase-like protein (hThrRS-L-FLAG) (human) (UniProt A2RTX5)
T1 sequence: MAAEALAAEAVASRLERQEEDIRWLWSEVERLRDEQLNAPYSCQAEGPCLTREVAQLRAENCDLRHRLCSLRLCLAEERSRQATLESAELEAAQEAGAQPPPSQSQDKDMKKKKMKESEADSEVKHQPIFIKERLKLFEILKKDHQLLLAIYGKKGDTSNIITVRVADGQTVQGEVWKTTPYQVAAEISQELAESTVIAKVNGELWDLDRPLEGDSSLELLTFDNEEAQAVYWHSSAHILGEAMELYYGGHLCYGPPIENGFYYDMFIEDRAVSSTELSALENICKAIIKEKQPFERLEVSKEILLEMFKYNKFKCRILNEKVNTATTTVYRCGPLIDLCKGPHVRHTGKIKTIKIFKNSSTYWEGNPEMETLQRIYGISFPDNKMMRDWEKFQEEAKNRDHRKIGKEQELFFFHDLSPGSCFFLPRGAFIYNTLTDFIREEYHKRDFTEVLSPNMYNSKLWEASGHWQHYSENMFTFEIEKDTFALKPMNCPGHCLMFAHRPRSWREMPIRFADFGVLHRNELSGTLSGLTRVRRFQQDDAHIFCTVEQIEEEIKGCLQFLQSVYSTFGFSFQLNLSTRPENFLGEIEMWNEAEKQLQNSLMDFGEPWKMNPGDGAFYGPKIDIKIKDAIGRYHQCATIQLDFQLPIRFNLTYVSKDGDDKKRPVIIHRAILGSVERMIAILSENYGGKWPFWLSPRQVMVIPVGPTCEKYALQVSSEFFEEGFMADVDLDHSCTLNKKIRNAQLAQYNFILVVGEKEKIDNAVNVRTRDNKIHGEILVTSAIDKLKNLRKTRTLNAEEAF

T2: hThrRS-L-Y457D with a C-terminal FLAG tag (human) (UniProt A2RTX5)
T2 sequence: T1 sequence with Y457D

T3: hThrRS-L-Y619D with a C-terminal FLAG tag (human) (UniProt A2RTX5)
T3 sequence: T1 sequence with Y619D

B1: native p43 (AIMP1), endogenous in human cells (protein, UniProt Q12904-2 1-336)
chain: MLPAVAVSEPVVLRFMIFCRLLAKMANNDAVLKRLEQKGAEADQIIEYLKQQVSLLKEKAILQATLREEKKLRVENAKLKKEIEELKQELIQAEIQNGVKQIPFPSGTPLHANSMVSENVIQSTAVTTVSSGTKEQIKGGTGDEKKAKEKIEKKGEKKEKKQQSIAGSADSKPIDVSRLDLRIGCIITARKHPDADSLYVEEVDVGEIAPRTVVSGLVNHVPLEQMQNRMVILLCNLKPAKMRGVLSQAMVMCASSPEKIEILAPPNGSVPGDRITFDAFPGEPDKELNPKKKIWEQIQPDLHTNDECVATYKGVPFEVKGKGVCRAQTMSNSGIK
B2: ArgRS, endogenous in human cells (enzyme, UniProt P54136 1-660)
chain: MDVLVSECSARLLQQEEEIKSLTAEIDRLKNCGCLGASPNLEQLQEENLKLKYRLNILRKSLQAERNKPTKNMINIISRLQEVFGHAIKAAYPDLENPPLLVTPSQQAKFGDYQCNSAMGISQMLKTKEQKVNPREIAENITKHLPDNECIEKVEIAGPGFINVHLRKDFVSEQLTSLLVNGVQLPALGENKKVIVDFSSPNIAKEMHVGHLRSTIIGESISRLFEFAGYDVLRLNHVGDWGTQFGMLIAHLQDKFPDYLTVSPPIGDLQVFYKESKKRFDTEEEFKKRAYQCVVLLQGKNPDITKAWKLICDVSRQELNKIYDALDVSLIERGESFYQDRMNDIVKEFEDRGFVQVDDGRKIVFVPGCSIPLTIVKSDGGYTYDTSDLAAIKQRLFEEKADMIIYVVDNGQSVHFQTIFAAAQMIGWYDPKVTRVFHAGFGVVLGEDKKKFKTRSGETVRLMDLLGEGLKRSMDKLKEKERDKVLTAEELNAAQTSVAYGCIKYADLSHNRLNDYIFSFDKMLDDRGNTAAYLLYAFTRIRSIARLANIDEEMLQKAARETKILLDHEKEWKLGRCILRFPEILQKILDDLFLHTLCDYIYELATAFTEFYDSCYCVEKDRQTGKILKVNMWRMLLCEAVAAVMAKGFDILGIKPVQRM
B3: native hThrRS, endogenous in HEK293T (enzyme, UniProt P26639 1-723)
chain: MFEEKASSPSGKMGGEEKPIGAGEEKQKEGGKKKNKEGSGDGGRAELNPWPEYIYTRLEMYNILKAEHDSILAEKAEKDSKPIKVTLPDGKQVDAESWKTTPYQIACGISQGLADNTVIAKVNNVVWDLDRPLEEDCTLELLKFEDEEAQAVYWHSSAHIMGEAMERVYGGCLCYGPPIENGFYYDMYLEEGGVSSNDFSSLEALCKKIIKEKQAFERLEVKKETLLAMFKYNKFKCRILNEKVNTPTTTVYRCGPLIDLCRGPHVRHTGKIKALKIHKNSSTYWEGKADMETLQRIYGISFPDPKMLKEWEKFQEEAKNRDHRKIGRDQELYFFHELSPGSCFFLPKGAYIYNALIEFIRSEYRKRGFQEVVTPNIFNSRLWMTSGHWQHYSENMFSFEVEKELFALKPMNCPGHCLMFDHRPRSWRELPLRLADFGVLHRNELSGALTGLTRVRRFQQDDAHIFCAMEQIEDEIKGCLDFLRTVYSVFGFSFKLNLSTRPEKFLGDIEVWDQAEKQLENSLNEFGEKWELNSGDGAFYGPKIDIQIKDAIGRYHQCATIQLDFQLPIRFNLTYVSHDGDDKKRPVIVHRAILGSVERMIAILTENYGGKWPFWLSPRQVMVVPVGPTCDEYAQKVRQQFHDAKFMADIDLDPGCTLNKKIRNAQLAQYNFILVVGEKEKISGTVNIRTRDNKVHGERTISETIERLQQLKEFRSKQAEEEF

The binders below were run against T1, C-terminal FLAG-tagged human threonyl-tRNA synthetase-like protein (hThrRS-L-FLAG) (human) (assay: co-IP; FLAG-tagged hThrRS-L or mutant overexpressed in HEK293T; IP with anti-FLAG, Dynabeads protein G, 4°C; endogenous partners detected by western blotting).

binding, binds:
B1
B2
B3

Each binder was assayed against T2, hThrRS-L-Y457D with a C-terminal FLAG tag (human) in the same assay as above.

binding, binds:
B1
B2
B3

These binders were tested against T3, hThrRS-L-Y619D with a C-terminal FLAG tag (human) in the same assay as above.

binding, binds:
B1
B2
B3

Reference: PMC6794377
